Laboratory results published in the supplement of paper PMC4604168 (melanoma cell lines).
This is one part of the list. Single values are uncertain, as repeats are few or missing.
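Note: cell number obtained by counting DAPI-stained nuclei in high-throughput microscope images with image analysis software, screen run in 1,536-well plates.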

The compounds below were run on C32 (assay: cell count relative to DMSO control; melanoma cells; higher = more viable cells). Details: library dose: low library concentration; 72 h.
In the case of C/C(O)=C(\C#N)C(=O)Nc1cc(Br)ccc1Br + O=c1cc(-c2cccc3c2Sc2ccccc2S3)oc(N2CCOCC2)c1 [KU55933] (first compound 2 µM, partner dose 1 µM), the cell count is reported as 103%.
C/C(O)=C(\C#N)C(=O)Nc1cc(Br)ccc1Br + CCCCCCCCCCCC1=C(O)C(=O)C=C(O)C1=O [Embelin] (first compound 2 µM, partner dose 1.2 µM) showed a cell count of 91.8%.
C/C(O)=C(\C#N)C(=O)Nc1cc(Br)ccc1Br + O=C(Oc1ccc([N+](=O)[O-])cc1)N1CCC(C(O)(c2ccc3c(c2)OCO3)c2ccc3c(c2)OCO3)CC1 [JZL184] (first compound 2 µM, partner dose 1 µM) gave a cell count of 95.7%.
Work on N#Cc1c(O)c2c(-c3ccc(-c4ccccc4O)cc3)csc2[nH]c1=O + O=C(Oc1ccc([N+](=O)[O-])cc1)N1CCC(C(O)(c2ccc3c(c2)OCO3)c2ccc3c(c2)OCO3)CC1 [JZL184] (first compound 2 µM, partner dose 1 µM) yielded a cell count of 103%.
Cn1nnc2c(C(N)=O)ncn2c1=O [temozolomide] + Cc1cc(SCc2sc(-c3ccc(C(F)(F)F)c(F)c3)nc2C)ccc1OCC(=O)O [GW0742] (first compound 2 µM, partner dose 2 µM) was tested, and the cell count was 99.3%.
In the case of NC1(c2ccc(-c3nc4ccn5c(=O)[nH]nc5c4cc3-c3ccccc3)cc2)CCC1 + C[As](C)SC[C@H](NC(=O)CC[C@H](N)C(=O)O)C(=O)NCC(=O)O [Darinaparsin] (first compound 0.4 µM, partner dose 0.4 µM), the cell count is reported as 87.5%.
For COc1ccc(-c2ccc3c(N4CCOCC4)nc(N4C[C@@H](C)O[C@@H](C)C4)nc3n2)cc1CO + O=C(Oc1ccc([N+](=O)[O-])cc1)N1CCC(C(O)(c2ccc3c(c2)OCO3)c2ccc3c(c2)OCO3)CC1 [JZL184] (first compound 0.02 µM, partner dose 1 µM), the cell count was 88%.
For Cc1ccc(NC(=O)c2cccc(N(C)C)c2)cc1NC(=O)c1ccc(O)cc1 + O=C(Oc1ccc([N+](=O)[O-])cc1)N1CCC(C(O)(c2ccc3c(c2)OCO3)c2ccc3c(c2)OCO3)CC1 [JZL184] (first compound 2 µM, partner dose 1 µM), the cell count was 100%.
Compound Cn1sc(=O)n(Cc2ccccc2)c1=O + C[C@]12O[C@H](C[C@]1(O)CO)n1c3ccccc3c3c4c(c5c6ccccc6n2c5c31)CNC4=O [Lestaurtinib] (first compound 0.4 µM, partner dose 0.004 µM) has a cell count of 113%.
With Cc1cc(SCc2sc(-c3ccc(C(F)(F)F)c(F)c3)nc2C)ccc1OCC(=O)O + Oc1cc(-c2nc(-c3ccccc3)[nH]c2-c2ccncc2)ccc1Cl [L779450] (first compound 2 µM, partner dose 0.2 µM) the cell count was 91.3%.
In the case of O=S(=O)(c1ccccc1)N(CC(F)(F)F)c1ccc(C(O)(C(F)(F)F)C(F)(F)F)cc1 + Cc1cc(SCc2sc(-c3ccc(C(F)(F)F)c(F)c3)nc2C)ccc1OCC(=O)O [GW0742] (first compound 1.4 µM, partner dose 2 µM), the cell count is reported as 97.9%.
Work on COC(=O)c1sccc1S(=O)(=O)Nc1ccc(Nc2ccccc2)cc1OC + C/C(O)=C(\C#N)C(=O)Nc1cc(Br)ccc1Br [LFM-A13] (first compound 1 µM, partner dose 2 µM) yielded a cell count of 95.5%.
In the case of Cc1ccc(Nc2nccc(N(C)c3ccc4c(C)n(C)nc4c3)n2)cc1S(N)(=O)=O [Pazopanib] + N.N.[Cl][Pt][Cl] [cisplatin] (first compound 0.4 µM, partner dose 1.6 µM), the cell count is reported as 108%.
COc1cc(Nc2ncc(F)c(Nc3ccc4c(n3)NC(=O)C(C)(C)O4)n2)cc(OC)c1OC [Tamatinib] + O=C(Oc1ccc([N+](=O)[O-])cc1)N1CCC(C(O)(c2ccc3c(c2)OCO3)c2ccc3c(c2)OCO3)CC1 [JZL184] (first compound 0.4 µM, partner dose 1 µM) was tested, and the cell count was 96.9%.
